Experimental data: paper PMC4336329 (PLoS ONE, 2015)
Hit rate of the full screen: of about 310,000 compounds, about 14,000 (4.5%) showed an effect of 50% or more. The effect is printed as a negative number. The list shows a part of the results.

Each compound was assayed against human ether-à-go-go-related gene (hERG) potassium channel (human, UniProt Q12809) (assay: primary screen, population patch clamp on CHO cells stably expressing hERG).
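Also: peak tail current of the secondary pulse compared with the same well before compound.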

Chain of human ether-à-go-go-related gene (hERG) potassium channel (Q12809 whole entry, looked up): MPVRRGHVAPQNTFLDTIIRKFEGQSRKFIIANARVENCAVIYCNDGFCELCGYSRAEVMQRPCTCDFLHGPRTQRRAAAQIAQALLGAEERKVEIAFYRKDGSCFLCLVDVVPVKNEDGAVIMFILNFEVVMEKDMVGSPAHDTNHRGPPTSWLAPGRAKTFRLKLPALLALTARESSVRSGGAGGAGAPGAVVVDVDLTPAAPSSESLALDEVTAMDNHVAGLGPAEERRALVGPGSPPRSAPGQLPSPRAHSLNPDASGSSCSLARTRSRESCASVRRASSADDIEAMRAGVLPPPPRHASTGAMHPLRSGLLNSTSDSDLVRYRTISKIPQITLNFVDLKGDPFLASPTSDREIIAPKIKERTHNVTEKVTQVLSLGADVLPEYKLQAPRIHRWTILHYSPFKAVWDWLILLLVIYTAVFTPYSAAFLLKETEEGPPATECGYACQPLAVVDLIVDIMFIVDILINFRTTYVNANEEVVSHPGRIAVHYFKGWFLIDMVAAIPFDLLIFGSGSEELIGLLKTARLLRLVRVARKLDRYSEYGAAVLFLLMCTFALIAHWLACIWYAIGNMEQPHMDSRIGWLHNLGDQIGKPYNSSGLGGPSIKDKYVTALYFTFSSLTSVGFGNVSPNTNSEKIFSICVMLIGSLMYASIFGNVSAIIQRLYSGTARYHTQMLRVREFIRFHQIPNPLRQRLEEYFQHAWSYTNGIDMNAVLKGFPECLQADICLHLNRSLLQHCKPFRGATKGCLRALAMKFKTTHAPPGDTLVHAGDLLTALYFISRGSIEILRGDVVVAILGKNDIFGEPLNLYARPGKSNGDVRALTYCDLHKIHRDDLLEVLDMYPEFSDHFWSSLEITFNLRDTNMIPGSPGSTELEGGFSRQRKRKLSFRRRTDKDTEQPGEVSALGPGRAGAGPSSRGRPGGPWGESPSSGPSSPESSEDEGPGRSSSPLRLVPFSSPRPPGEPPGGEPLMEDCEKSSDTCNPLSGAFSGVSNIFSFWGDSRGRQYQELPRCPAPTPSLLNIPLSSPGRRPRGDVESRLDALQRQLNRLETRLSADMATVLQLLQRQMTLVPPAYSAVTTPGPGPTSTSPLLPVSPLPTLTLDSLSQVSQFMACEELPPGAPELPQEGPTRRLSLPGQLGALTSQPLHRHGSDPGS

| SMILES | hERG current change (%, negative = inhibition) at 10uM |
| --- | --- |
| O=C(O)CNS(=O)(=O)c1cccc2nsnc12 | -3.29% |
| Cc1cccc(NC(=O)COC(=O)c2cc(C)oc2C)c1 | -48.1% |
| NC(=O)C[n+]1ccc(/C=N/O)cc1.[Cl-] | 2.23% |
| Cc1cccc(NC(=O)/C(C#N)=C\c2cn(CC(=O)O)c3ccccc23)c1 | 10.3% |
| COCCCn1c(SCCc2ccccc2)nc2cc(OC)c(OC)cc2c1=N | -12.7% |
| CCC(=O)OCCNc1cc(Sc2nc3ccccc3[nH]2)c2nonc2c1[N+](=O)[O-] | 8.13% |
| O=C(Nc1ccn(Cc2ccccc2F)n1)c1ccc(COc2cc(Cl)ccc2Cl)o1 | 13% |
| C=CCNc1ncnc2c1[nH]c1ccc(C)cc12 | 0.512% |
| COc1ccc(C=C(C(C)=O)C(C)=O)cc1OC | 5.59% |
| Fc1ccc(F)c(NC(=S)NCCc2ccccc2)c1 | 8.07% |
| O=S(=O)(N1CCOCC1)n1cnc2ccccc21 | -0.341% |
| COc1ccc(CCn2cnc(=O)c(C#N)c2C)cc1OC | 7.94% |
| O=C(c1cc(-c2ccc(Cl)cc2)nc2ccccc12)N1CCOCC1 | -68.8% |
| CNC(=O)CSc1nnc(COc2ccc([N+](=O)[O-])cc2)n1C | 4.51% |
| O=C(Nc1nc2c(F)cc(F)cc2s1)c1ccco1 | -5.62% |
| CCc1[nH]nc2c1C(C(C)C)C(C#N)=C(N)O2 (stereo not shown) | 10.8% |
| CC1CN(C(=O)CSc2nnc(-c3cccs3)n2N)CC(C)O1 (stereo not shown) | 9.62% |
| CCC(CC)c1nnc(NC(=O)c2ccco2)s1 | 7.68% |
| O=C(Cn1nnc(-c2ccccc2F)n1)Nc1ccc2c(c1)OCCO2 | 11.3% |
| N#Cc1ccsc1NC(=O)COC(=O)CCCSc1nc2ccccc2s1 | -32.9% |

| SMILES | hERG current change (%, negative = inhibition) at 10uM |
| --- | --- |
| Cc1ccc(NC(=S)N/N=C/c2ccc(OCCC(C)C)cc2)c(C)c1 | -0.61% |
| Cc1ccc(-n2nc(C)c(/C=N/n3c(C)n[nH]c3=S)c2Cl)cc1 | 17.3% |
| COc1ccc(CCN2C(=NC(=O)CC(C)C)SC3CS(=O)(=O)CC32)cc1 (stereo not shown) | -14.6% |
| Oc1ccc(-c2csc(NCc3ccco3)n2)cc1 | -10.2% |
| Cc1ccc(C(=O)C(SC(C)(C)C)n2cncn2)cc1 (stereo not shown) | -0.809% |
| COc1ccc(-c2csc(NC(C)c3nc4cc(Cl)c(Cl)cc4n3CCOCCO)n2)cc1 (stereo not shown) | 18.4% |
| COc1cccc(-c2ocnc2C(=O)Nc2ccc(N3CCOCC3)cc2N2CCOCC2)c1 | 6.25% |
| CCc1c(C)nc2[nH]nc(-c3ccccc3C)n2c1=O | 7.29% |
| CC(C)c1ccccc1NC(=O)COC(=O)C1(C)CC1(Cl)Cl (stereo not shown) | 6.41% |
| COc1ccccc1C1C(C(=O)c2sc(C)nc2C)=C(O)C(=O)N1CCN1CCOCC1 (stereo not shown) | 4.26% |
| CC(C)n1cc(CN2CCN(CCc3ccccc3)C(CCO)C2)cn1 (stereo not shown) | -53.4% |
| O=C1C2C3C=CC(CC3)C2C(=O)N1c1ccc(F)cc1 (stereo not shown) | 12.3% |
| CCN(CC(=O)NCc1ccc(F)cc1)C(=O)c1ccc2c(c1)OCO2 | -5.66% |
| C=CCNC(=O)c1cc2c(C(F)(F)F)nn(C)c2s1 | 3.82% |
| O=C(Cn1c(-c2cscn2)nc2ccccc21)Nc1ccccc1F | -0.121% |
| Cc1ccc(C)c(NC(=O)CCN2CCc3ccccc3C2)c1 | -21.6% |
| O=C(Nc1ccc(Oc2ccc(C(=O)O)c(C(=O)O)c2)cc1)c1cccs1 | 44.9% |
| Cc1cc(NCCCn2ccnc2)n2nc(-c3ccc(F)cc3)cc2n1 | -14% |
| CCN(CC)CCCNc1nc(CN2CCOCC2)nc2sc3c(c12)CCC3 | -14.3% |
| O=C(CSc1nccc(=O)[nH]1)Nc1cccc2ccccc12 | 16.5% |

| SMILES | hERG current change (%, negative = inhibition) at 10uM |
| --- | --- |
| Cc1ccc(C)c(N2CCN(C(=O)c3ccccc3Br)CC2)c1 | -7.63% |
| Cc1ccc(S(=O)(=O)N2CCOCC2)cc1C(=O)Nc1ccc(C(N)=O)cc1 | 5.96% |
| CN(CC(=O)Nc1ccccc1C(F)(F)F)C(=O)c1cc(-c2cccs2)nn1-c1ccccc1 | -15.5% |
| COC(=O)c1ccc2nc(C(F)(F)F)[nH]c2c1 | 8.9% |
| Cc1cccc(C)c1N1CCN(S(=O)(=O)N2CCOCC2)CC1 | -32.4% |
| Cc1cc(C)nc(SCC(=O)NCc2ccco2)n1 | 2.76% |
| Cc1nc(SCC(=O)OCc2ccccc2)c(C#N)c(-c2ccccc2)c1C(=O)Nc1ccccc1 | 15.7% |
| CCN(CC)S(=O)(=O)c1ccc2oc(C(=O)NCc3ccc(F)cc3)c(C)c2c1 | 12.8% |
| O=C(CCCc1ccccc1)NC1CC1 | -2.35% |
| Cn1ncc2c(N3CCN(c4ccc(Cl)c(Cl)c4)CC3)ncnc21 | -18.3% |
| O=C(C1CCCO1)N1CCN(C(=S)Nc2ccc(F)c(Cl)c2)CC1 (stereo not shown) | -12% |
| Nc1nonc1-n1nnc(C(=O)N/N=C/c2cccnc2)c1CSc1ccccc1 | 3.22% |
| COc1ccc(CCN2C(=O)C3C4CC(C5C(C(=O)NN)=NOC45)C3C2=O)cc1OC (stereo not shown) | 7.3% |
| O=C(CCS(=O)(=O)c1ccc(Cl)cc1)Nc1ccccc1Br | 20.6% |
| Cn1c(=O)c2c(ncn2CC(O)CNc2ccc(F)cc2)n(C)c1=O (stereo not shown) | 1.35% |
| O=C(/C=C/c1ccccc1[N+](=O)[O-])N1CCOCC1 | 15.5% |
| Cc1ccccc1C(=O)N/N=C1/SCC(=O)N1Cc1ccc2c(c1)OCO2 | -8.73% |
| C[C@H](CCC(=O)NCC(=O)O)[C@H]1CC[C@H]2[C@@H]3[C@H](O)C[C@@H]4C[C@H](O)CC[C@]4(C)[C@H]3C[C@H](O)[C@]12C | 18.4% |
